Reference: the supplement of paper PMC6089552
About 300 (9.4%) of roughly 3,200 compounds showed activity. Only a part is listed here, and it is no random draw.

Tested on: A673/TR/shEF
Assay: cell viability (LOESS-normalised, relative to median of negative controls) (log2 ratio); higher = more viable cells (less compound effect), active = hit call of the paper (over 3 MAD below the median)
Details: treatment time: 72 h
In short: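 A673/TR/shEF Ewing sarcoma cells (1,500 per well, 384-well plates) were grown with or without doxycycline to induce EWS-FLI1 shRNA knockdown, starting 24 h before compounds. Library compounds at two or more concentrations, with DMSO controls, were added for three days. Cell viability was read by CellTiter-Glo luminescence on an Envision reader, then LOESS-corrected per plate, divided by the median of negative controls and log2-transformed. Hits were wells at least three median absolute deviations from the median of all screened wells.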

[1] = 0.25 µM, library screen: screen2, EWS-FLI1 expression: high (no doxycycline)
[2] = 0.25 µM, library screen: screen2, EWS-FLI1 expression: low (doxycycline-induced shRNA knockdown)
[3] = 2.5 µM, library screen: screen2, EWS-FLI1 expression: high (no doxycycline)
[4] = 2.5 µM, library screen: screen2, EWS-FLI1 expression: low (doxycycline-induced shRNA knockdown)
[5] = 0.103 µM, library screen: screen3, EWS-FLI1 expression: high (no doxycycline)
[6] = 0.103 µM, library screen: screen3, EWS-FLI1 expression: low (doxycycline-induced shRNA knockdown)
[7] = 0.25 µM, library screen: screen1, EWS-FLI1 expression: high (no doxycycline)
[8] = 0.25 µM, library screen: screen1, EWS-FLI1 expression: low (doxycycline-induced shRNA knockdown)
[9] = 0.308 µM, library screen: screen3, EWS-FLI1 expression: high (no doxycycline)
[10] = 0.308 µM, library screen: screen3, EWS-FLI1 expression: low (doxycycline-induced shRNA knockdown)
[11] = 0.926 µM, library screen: screen3, EWS-FLI1 expression: high (no doxycycline)
[12] = 0.926 µM, library screen: screen3, EWS-FLI1 expression: low (doxycycline-induced shRNA knockdown)
[13] = 2.5 µM, library screen: screen1, EWS-FLI1 expression: high (no doxycycline)
[14] = 2.5 µM, library screen: screen1, EWS-FLI1 expression: low (doxycycline-induced shRNA knockdown)
[15] = 2.8 µM, library screen: screen3, EWS-FLI1 expression: high (no doxycycline)
[16] = 2.8 µM, library screen: screen3, EWS-FLI1 expression: low (doxycycline-induced shRNA knockdown)
[17] = 8.3 µM, library screen: screen3, EWS-FLI1 expression: high (no doxycycline)
[18] = 8.3 µM, library screen: screen3, EWS-FLI1 expression: low (doxycycline-induced shRNA knockdown)
[19] = 25 µM, library screen: screen3, EWS-FLI1 expression: high (no doxycycline)
[20] = 25 µM, library screen: screen3, EWS-FLI1 expression: low (doxycycline-induced shRNA knockdown)

Measured: cell viability (log2)

CCc1ccccc1OC[C@@H](O)CN[C@H]1CCCc2ccccc21
inactive: [1] 0.139 | [2] 0.00795 | [3] 0.162 | [4] 0.0146

COc1c2occc2cc2ccc(=O)oc12
inactive: 0.025 µM, library screen: screen2, EWS-FLI1 expression: high (no doxycycline) 0.0816 | 0.025 µM, library screen: screen2, EWS-FLI1 expression: low (doxycycline-induced shRNA knockdown) 0.0291 | [5] 0.114 | [6] -0.0228 | [7] 0.106 | [8] 0.087 | [1] 0.116 | [2] 0.0265 | [9] 0.108 | [10] 0.0766 | [11] 0.107 | [12] 0.0808 | [13] 0.267 | [14] 0.0328 | [3] 0.00648 | [4] 0.101 | [15] 0.114 | [16] 0.0915 | [17] 0.0523 | [18] 0.0351 | 25 µM, library screen: screen2, EWS-FLI1 expression: high (no doxycycline) 0.0896 | 25 µM, library screen: screen2, EWS-FLI1 expression: low (doxycycline-induced shRNA knockdown) 0.0776 | [19] 0.143 | [20] 0.0713

CC1(C)COC(CC(=O)O)CN1 (configuration not stated)
inactive: [7] 0.11 | [8] 0.00312 | [13] 0.108 | [14] 0.0408

CN1CCN(C2=Nc3ccccc3Oc3ccc(Cl)cc32)CC1
inactive: [7] 0.0457 | [8] -0.0249 | [1] 0.2 | [2] 0.118 | [13] 0.0433 | [14] -0.00943 | [3] 0.165 | [4] 0.0787

Cc1onc(-c2c(Cl)cccc2Cl)c1C(=O)Nc1ccc(Br)cc1F
inactive: [7] 0.112 | [8] 0.103 | [13] 0.116 | [14] 0.0234

CN(Cc1cnc2nc(N)nc(N)c2n1)c1ccc(C(=O)N[C@H](CCC(=O)O)C(=O)O)cc1
inactive: [1] 0.209 | [2] 0.115 | [3] 0.0762 | [4] 0.165

CCCCCCCCCCCCCCCCCCOCC(O)CO (configuration not stated)
inactive: [7] 0.0496 | [8] 0.117 | [13] 0.142 | [14] 0.0249

COc1ccccc1C1NC(=S)NC(C)=C1C(=O)Nc1cccc(Cl)c1 (configuration not stated)
inactive: [7] 0.0961 | [8] 0.101 | [13] 0.0795 | [14] 0.0861

CCCCCc1c2c(cc(O)c1C(=O)O)OC(=O)c1c(cc(OC)cc1C(=O)CCCC)O2
inactive: [7] 0.114 | [8] 0.07 | [13] 0.16 | [14] 0.131

COC1=C[C@@H](C)[C@@H]2C[C@H]3OC(=O)C[C@H]4C(C)=C(OC)C(=O)[C@H]([C@@]2(C)C1=O)[C@@]34C
inactive: [7] 0.0742 | [8] 0.006 | [13] 0.146 | [14] 0.0264

N#Cc1ccc(C(c2ccc(C#N)cc2)n2cncn2)cc1
0.31: [19]
inactive: [5] 0.064 | [6] 0.0892 | [9] 0.0484 | [10] 0.0499 | [11] 0.01 | [12] 0.0721 | [15] 0.093 | [16] 0.0571 | [17] 0.064 | [18] 0.0674 | [20] 0.101

COc1ccc(-c2ccc(N)[n+](CCCC(=O)O)n2)cc1
inactive: [1] 0.167 | [2] 0.0773 | [3] 0.144 | [4] 0.0536

C=C1CC[C@H](O)C/C1=C/C=C1\CCC[C@]2(C)[C@@H]([C@H](C)CCCC(C)C)CC[C@@H]12
inactive: [7] 0.151 | [8] 0.125 | [13] 0.113 | [14] 0.0465

NC1(C(=O)O)CCCCC1
inactive: [1] 0.0492 | [2] 0.114 | [3] -0.0212 | [4] 0.0608

NNCCc1ccccc1
active: [3] -0.435 | [4] -0.392
inactive: [7] 0.0542 | [8] 0.11 | [1] 0.136 | [2] -0.0727 | [13] 0.2 | [14] 0.188

CC(=O)S[C@@H]1CC2=CC(=O)CC[C@]2(C)[C@H]2CC[C@@]3(C)[C@@H](CC[C@@]34CCC(=O)O4)[C@H]12
inactive: [7] 0.154 | [8] 0.0813 | [1] 0.207 | [2] 0.0952 | [13] 0.236 | [14] 0.233 | [3] 0.157 | [4] 0.0341

C#Cc1cccc(Nc2ncnc3cc(OC)c(OCCCCCCC(=O)NO)cc23)c1
active: [11] -0.53 | [12] -0.197 | [15] -1.73 | [16] -0.607 | [17] -2.92 | [18] -0.618 | [19] -3.65 | [20] -1.64
inactive: [5] -0.0787 | [6] -0.0134 | [9] -0.0791 | [10] -0.0194

CC(Cc1cccc(C(F)(F)F)c1)NCCOC(=O)c1ccccc1 (configuration not stated)
inactive: [7] 0.109 | [8] 0.0265 | [13] 0.176 | [14] -0.0188

COc1ccc2c(=O)c(OC)c(-c3ccccc3)oc2c1
inactive: [7] 0.146 | [8] -0.0135 | [13] 0.142 | [14] -0.0254

NCC(O)C1CCCCCCC1 (configuration not stated)
inactive: [1] 0.139 | [2] 0.0677 | [3] 0.0584 | [4] 0.14

CN1CCC(=C2c3ccccc3C=Cc3ccccc32)CC1
inactive: [1] 0.203 | [2] 0.115 | [3] 0.0726 | [4] -0.0154

CCCNC[C@H](O)COc1ccccc1C(=O)CCc1ccccc1
inactive: [1] 0.255 | [2] 0.136 | [3] 0.217 | [4] 0.0281

C(#CC12CC3CC(CC(C3)C1)C2)CN1CCOCC1
inactive: [7] 0.0887 | [8] 0.0273 | [13] 0.163 | [14] 0.0455

CCn1c(=O)c2[nH]c(-c3ccccc3)nc2n(CC)c1=O
inactive: [1] 0.325 | [2] 0.0702 | [3] 0.169 | [4] 0.0945

N#Cc1c(-c2ccccc2)no[n+]1[O-]
inactive: [1] 0.0776 | [2] 0.12 | [3] 0.0573 | [4] 0.147

C[C@H]1O[C@H](O[C@H]2[C@H](O)[C@@H](O)[C@@H](O[C@H]3[C@H](O)[C@@H](O)C(O)O[C@@H]3CO)O[C@@H]2CO)[C@H](O)[C@@H](O)[C@@H]1N[C@H]1C=C(CO)[C@@H](O)[C@H](O)[C@H]1O (some centres not stated)
inactive: [5] 0.0722 | [6] 0.0864 | [9] 0.0913 | [10] 0.114 | [11] 0.112 | [12] 0.0769 | [15] 0.0866 | [16] 0.0489 | [17] 0.0887 | [18] 0.0595 | [19] 0.12 | [20] 0.0697

CC(C)(C=O)Cc1cc(C(C)(C)C)c(O)c(C(C)(C)C)c1
inactive: [1] 0.149 | [2] 0.153 | [3] 0.105 | [4] 0.142

CN1CCN(CC/C=C2/c3ccccc3Sc3ccc(S(=O)(=O)N(C)C)cc32)CC1
inactive: [7] 0.106 | [8] 0.00591 | [1] 0.173 | [2] 0.165 | [13] 0.0792 | [14] 0.15 | [3] 0.161 | [4] -0.0129

NC(N)=NS(=O)(=O)c1ccc(N)cc1
inactive: [7] 0.0966 | [8] 0.0507 | [13] 0.189 | [14] 0.133

COc1c(-c2coc3cc4c(cc3c2=O)CC(O)C(C)(C)O4)ccc2c1C=CC(C)(C)O2 (configuration not stated)
inactive: [7] 0.0473 | [8] 0.0244 | [13] 3e-05 | [14] 0.094

OCCN1CCN(CC/C=C2/c3ccccc3Sc3ccc(C(F)(F)F)cc32)CC1
inactive: [1] 0.14 | [2] 0.0648 | [3] 0.179 | [4] 0.072

OC[C@H]1O[C@@H](n2cnc3c(NCCc4ccccc4)ncnc32)C(O)[C@H]1O (some centres not stated)
inactive: [1] 0.15 | [2] 0.163 | [3] 0.0914 | [4] 0.0608

N#Cc1c(-c2ccc(Br)cc2)cc(-c2ccc3c(c2)OCO3)c(C#N)c1N
inactive: [7] 0.0622 | [8] 0.109 | [13] 0.154 | [14] 0.0524

Cc1cn[nH]c1
inactive: [1] 0.0608 | [2] 0.0728 | [3] 0.0815 | [4] 0.0769

CC12CCC3c4ccc(OC(=O)c5ccccc5)cc4CCC3C1CCC2=O (configuration not stated)
inactive: [7] -0.000312 | [8] 0.0356 | [13] 0.0819 | [14] 0.000425

OC(Cn1cncn1)(Cn1cncn1)c1ccc(F)cc1F
inactive: [5] 0.0788 | [6] 0.0993 | [7] 0.166 | [8] 0.00845 | [9] 0.2 | [10] 0.0904 | [11] 0.146 | [12] 0.0591 | [13] 0.096 | [14] -0.00416 | [15] 0.155 | [16] 0.0396 | [17] 0.104 | [18] 0.0872 | [19] 0.181 | [20] 0.111

C[C@@H](NCCCc1cccc(C(F)(F)F)c1)c1cccc2ccccc12
inactive: [5] 0.085 | [6] 0.0699 | [9] 0.0937 | [10] 0.0681 | [11] 0.0751 | [12] 0.0865 | [15] 0.0584 | [16] 0.0742 | [17] 0.0429 | [18] 0.0305 | [19] -0.0605 | [20] 0.00123

CC(=O)[C@@]1(O)CC[C@H]2[C@@H]3C=C(Cl)C4=CC(=O)[C@@H]5C[C@@H]5[C@]4(C)[C@H]3CC[C@@]21C
inactive: [7] 0.125 | [8] 0.0388 | [13] 0.131 | [14] -0.0197
